# The list shows a part of the results. At the low end of the ranking, values are background and their order means little.
# Target: SIX1 homeodomain (reference allele) (UniProt Q15475)
# Assay: universal protein binding microarray
# Details: Universal all-10-mer PBM (8x60K, AMADID 030236), 300 nM GST-tagged protein, Alexa Fluor 488 anti-GST; buffer, salt, pH and temperature not stated; high values mean tight binding; most listed sequences are background and not binding sites; double strand, one strand shown
row,Sequence,binding signal [E-score]
1,CCGCCCGA,0.129
2,AGTGGTAC,-0.164
3,GGCGCACA,-0.168
4,ACACGCAC,0.0584
5,CAACGAGA,0.0289
6,CACACTCA,-0.0303
7,CACCCTGG,0.0845
8,AGTAGGGC,-0.107
9,AGAGTGCC,-0.329
10,ACTGGGGC,-0.0721
11,ATAGGACA,0.0181
12,GCACTGGA,-0.0936
13,AGGCGCAC,-0.0935
14,GTCTAGGA,-0.0546
15,ACACATGA,-0.104
16,AGTCTGGC,-0.227
17,ATCTATTC,0.24
18,CTCCGAGC,0.0974
19,ACCACGGC,-0.0202
20,CATCAATA,0.0491
21,GGCAAAGA,-0.17
22,AGTTCGAG,-0.0394
23,AGCCCTCC,-0.117
24,AGGTGTAT,0.377
25,ATAGATGA,0.287

row,Sequence,binding signal [E-score]
1,GGTTAAAA,-0.155
2,GAGCTCCC,0.0985
3,CTGCGCGC,0.0228
4,CCTTAAAC,-0.0612
5,ATAGCCAC,0.213
6,CGAAGGTA,0.103
7,CCCGGACG,-0.218
8,GCGGATAA,0.317
9,GACTTCGA,-0.297
10,GTAGTCAC,-0.211
11,CCCCATGC,0.112
12,AAAGTGAT,0.242
13,ACGTCTGC,-0.217
14,AGATCCAT,0.254
15,CGGGTACG,0.0311
16,CCGCGCAC,0.0187
17,CAGCCTTC,-0.211
18,GTATGCAC,-0.0857
19,AGACACTG,0.102
20,CCCACTTA,-0.0226
21,AGGGTAGA,0.0296
22,AGTCACAA,-0.111
23,CAACCTAA,-0.132
24,GCATCCCC,0.145
25,CCATCATC,-0.105

row,Sequence,binding signal [E-score]
1,GAATTGCA,-0.257
2,ACGGATTC,0.187
3,CCATGCTC,-0.0939
4,ACACCGGT,0.39
5,CCATAGCC,-0.0111
6,AGAACACC,0.179
7,CTAAAACC,-0.171
8,ATCTGTTC,-0.0315
9,ACCAACTA,0.0637
10,GGTAATAC,0.297
11,AGCAATTC,-0.173
12,GCAGACGC,-0.0918
13,ATCGCAAA,0.121
14,TATCACGA,0.373
15,ACGATGGG,-0.0307
16,CTATGCTC,-0.154
17,CGAGTCGA,0.0265
18,GCATCAAC,-0.052
19,CCCGTAAA,-0.0845
20,ATAGCTCC,0.0647
21,AGCTCTAA,-0.0455
22,CAATTCGC,-0.0588
23,CACAAAAC,-0.121
24,CTTATTGC,-0.128
25,CATGCCAG,0.0251

row,Sequence,binding signal [E-score]
1,AACATTGC,-0.229
2,AGATGATA,0.432
3,ACGTCGAG,-0.125
4,ACGGTTGC,-0.235
5,AGCTATTG,-0.0486
6,AGCCGAAC,-0.22
7,AATAGCCC,-0.0111
8,CCGTCAGC,-0.241
9,CGTGGCGC,-0.354
10,GCGAATCC,-0.0573
11,ATATCAAC,0.418
12,AGAGCTCT,-0.197
13,AGTTCGGG,-0.161
14,ACTAGACG,0.0521
15,AGAAAGCC,-0.277
16,CTAACCAA,-0.12
17,AGTCCGAT,0.0388
18,ACATTGCG,-0.0894
19,CAATCGGG,-0.0725
20,ATGAGGAA,-0.0781
21,CGTGTTTC,-0.218
22,AGTATCCC,0.412
23,CGGATTGA,0.305
24,GGCCCTGA,-0.259
25,ATGCTGGG,-0.0546

row,Sequence,binding signal [E-score]
1,AGTCGTGA,-0.000895
2,CCGCTAGA,-0.171
3,AGGGTCCC,-0.31
4,TATGCATA,0.202
5,AAGATACT,0.295
6,GGAAGACA,-0.14
7,TGATCAAA,0.0636
8,AACTGAAC,-0.142
9,AGCCTTAT,0.114
10,ATGGTTCC,-0.0625
11,CGAGTCAG,-0.245
12,AGGTCGGG,0.0285
13,ATGTTATC,0.13
14,ATACACAC,0.249
15,AAAGGCCG,0.00362
16,CGGCTTCC,-0.0221
17,CTCCTCTA,0.0736
18,AATCCAGG,0.138
19,CCTCCAAC,-0.0743
20,GAGCCAAA,-0.0853
21,CCGCTCTC,-0.21
22,CAAAGGGC,-0.182
23,GAGTGCCA,-0.326
24,GCAGAGAC,-0.238
25,CCTCGATC,0.145

row,Sequence,binding signal [E-score]
1,CTAAACAG,-0.164
2,CGGAGCAG,-0.12
3,CTTCTGGA,-0.055
4,CCCGGCGG,0.0414
5,AGGGAAGC,-0.184
6,GCAAAAAC,-0.168
7,AAGGTAAA,-0.0296
8,AATTTAAT,-0.167
9,CAACCATG,-0.13
10,ACTTGGAT,0.193
11,AGGAAAGC,-0.253
12,CTGAGCGA,-0.00364
13,CATAGACA,0.00346
14,GAAATGAA,-0.072
15,CTTCCAGC,-0.156
16,AAAGAAAT,-0.254
17,ATTACTAA,0.0066
18,CGAGTGCG,-0.171
19,CTGTAGGA,-0.086
20,CCGAACCG,0.0063
21,GAGTCGCA,-0.21
22,ATCCAGTC,0.179
23,ACCAAGAG,0.0644
24,ATAGGCGA,0.103
25,CCTGCCGC,-0.301

row,Sequence,binding signal [E-score]
1,TACAGCAA,-0.0191
2,GAAGATGC,-0.0743
3,CGGTCCAC,-0.268
4,GAGTCGAA,0.0498
5,CCACTGAG,0.0813
6,GGGAGGAA,0.0563
7,CTTGTATA,0.213
8,CTCTCGGA,0.0874
9,CATAAGCG,-0.0467
10,CTCCGCCA,-0.131
11,GCACCTCC,-0.303
12,CAACTGTG,-0.178
13,ACGCCTCA,-0.0309
14,ACAGCTCC,-0.079
15,AGCCCCGG,-0.0284
16,CTAACCGA,-0.00465
17,ATTTGAGC,-0.0406
18,ATACTCTA,0.268
19,GAGTTCGA,-0.195
20,CTGTCACA,-0.155
21,ATCAGCCC,0.308
22,ATTCATGA,0.017
